Laboratory results from ChEMBL document CHEMBL4888484, “Replenishing the malaria drug discovery pipeline: Screening and hit evaluation of the MMV Hit Generation Library 1 (HGL1) against asexual blood stage Plasmodium falciparum ,using a nano luciferase reporter read-out” (2022).
In all, about 4,800 compounds went through this assay and about 420 (8.8%) showed an effect of 50% or more. The list shows a part of the results.

Tested on: Plasmodium falciparum
Assay: Confirmatory screen in NF54 nanoGlo assay, in single point, at 2uM, 72h
Type: functional, Erythrocyte
Details: timepoint 72 hour

Row | Compound | % Inhibition [%]
1 | Cc1ccc2nc(-c3cc4ccccc4o3)cn2c1 | 44
2 | Cc1nc(CNS(=O)(=O)Cc2ccc(F)c(Cl)c2)sc1C | -1
3 | Cc1ccc(CNc2ccc(S(C)(=O)=O)cc2)c(=O)n1C | -9
4 | Cc1c(C(=O)NCCc2ccc(Cl)cc2)oc2ccc3c(c12)[C@@H](O)CC(C)(C)O3 | 4
5 | CC(C)CNCc1cccc(Br)c1 | 7
6 | Oc1ccccc1CCN[C@H]1CCc2ccc(F)cc21 | 98
7 | CCc1nc(CNc2ccc(C)c(S(=O)(=O)NC3CC3)c2C)n[nH]1 | -16
8 | CC(=O)N1CCc2cc(-c3ccc(C(=O)NCC[C@H](C)N4CCCC4)cc3)ccc21 | 0
9 | Oc1cc2ccccc2cc1-c1nnc(-c2ccccc2)c(-c2ccccc2)n1 | -13
10 | O=S(=O)(N[C@H]1CCc2nnc(-c3ccc(F)cc3)n2C1)c1cccnc1 | 1
11 | Cc1noc(-c2csc(-c3c[nH]cn3)n2)n1 | -7
12 | CN(CCNC(=O)CCc1cn(-c2ccccc2)nc1-c1ccc2c(c1)OCO2)C1CCCCC1 | 52
13 | CNc1nc(NCCc2ccccc2)nc2ccccc12 | 80
14 | Cc1c(S(=O)(=O)N2CCN(C(=O)c3ccc(F)cc3)CC2)cnn1C(F)F | 0
15 | Cc1ccccc1NC(=O)Cc1nnc(N)s1 | -3
16 | Cc1cc(C(F)(F)F)nn2cnnc12 | -17
17 | Cc1ccc(F)cc1S(=O)(=O)N1CC[C@]2(CCN(c3cccnc3)C2)C1 | -13
18 | O=C(c1cc2ncccn2n1)N1CCc2ccccc2C1 | -3
19 | O=C(Nc1ccn(Cc2cccc(Cl)c2)n1)c1nn2cccnc2c1Cl | -10
20 | Cc1c(NC(=O)c2ccccc2-c2ccccc2)ccc(N2CCCC2=O)c1NC(=O)c1ccccc1-c1ccccc1 | -9
21 | CNC(=O)CNC(=O)c1cccc(Cl)c1 | -1
22 | COCCN1CCc2c(C)nc3c(-c4ccc(OC)c(OC)c4)cnn3c21 | 6
23 | Cc1cccc(Nc2nc(-c3cnc(N4CCN(C)CC4)nc3C)cc(=O)[nH]2)c1 | -7
24 | CCn1c(-c2cc(NC(=O)c3ccc4c(c3)OCO4)[nH]n2)cc2ccc(OC)cc21 | 31
25 | Cc1ccc(NC(=O)c2c(C)nc3sc(C(=O)NCc4ccccc4)c(N)c3c2-c2ccccc2Cl)c(C)c1 | 77
26 | Cc1ccc(N2CCN(c3ncc4c(=O)n(-c5ccc6c(c5)OCO6)c(=O)[nH]c4n3)CC2)cc1 | -11

Row | Compound | % Inhibition [%]
27 | Cc1cc(-n2c(C)cc(C(=O)Cn3c(C(F)(F)F)ccc(C(N)=O)c3=O)c2C)no1 | 25
28 | CCC[C@H](C)c1nc(N2CCN(C(=O)Cc3ccc(OC)cc3)CC2)c2cnn(-c3ccccc3)c2n1 | 10
29 | CC(C)C(NC(=O)COc1ccccc1)C(=O)NCC(c1ccccc1Cl)c1c[nH]c2ccccc12 (centres undefined) | 69
30 | c1cn2cnnc2c(N(CC2CC2)CC2CC2)n1 | -9
31 | CCN(CC)c1ccc(NS(=O)(=O)c2ccc(N3C(=O)[C@@H](C)CS3(=O)=O)cc2)cc1 | 0
32 | Cc1c(C(=O)Nc2cccc(S(=O)(=O)NC3CC3)c2)cnn1C | -1
33 | O=S(=O)(c1ccc(Cl)s1)N1CCC(N2CCc3sccc3C2)CC1 | 44
34 | COc1ccc([C@@H]2C=C(c3ccc(Cl)cc3)N=C3NC(NC(=O)c4ccccc4OC)=NN32)cc1 | 97
35 | COc1ccc2cc3n(c2c1)C[C@](C(=O)NC1CCCCCC1)(c1ccccc1)N(Cc1ccccc1Cl)C3=O | 3
36 | Cc1cc(CS(=O)(=O)NCCOc2ccc(Cl)cc2)on1 | 2
37 | O=S(=O)(Cc1cc(O)n(-c2ccccc2)n1)c1ccccc1 | -7
38 | O=c1nc2n(nc1-c1ccccc1)C1(CCC1)Nc1ccccc1-2 | 74
39 | c1ccc(CC2=NCCc3ccccc32)cc1 | 65
40 | Cc1[nH]ccc(=O)c1Cc1c(Cl)cccc1Cl | -16
41 | O=C(CN1CCC2(CC1)NC(c1ccc(OC(F)(F)F)cc1)=NO2)NCc1ccc(F)cc1 | -7
42 | O=C(Nc1ccc2c(c1)OCCO2)N1CCC(O)CC1 | 0
43 | Cc1ncc(CN(C)[C@@H](C)C(=O)Nc2ccc3c(c2)OC2(CCCCC2)O3)s1 | -4
44 | O=C(c1cc2nc(-c3ccc(Cl)c(Cl)c3)cc(C(F)(F)F)n2n1)N1CCN(c2ccccc2)CC1 | -10
45 | CN1CCN(c2ccc(F)cc2C(=O)NCc2ccc3cnn(C)c3c2)CC1 | -8
46 | Oc1cc(-c2ccc3ccccc3c2)[nH]n1 | -11
47 | O=C(OCC(=O)N1CCN(Cc2ccccc2)CC1)c1nccc2ccccc12 | 1
48 | COc1cc(C(=O)NCCN2CCOCC2)cc2occc12 | -4
49 | O=c1c2cc(F)c(F)cc2ncn1C[C@@H](O)CC1CCCC1 | -4
50 | COc1ccc(-n2nc(C(=O)N3CCN(c4ncccn4)CC3)c(=O)cc2OC)cc1 | -24
51 | CN(CC[C@H](O)C(F)(F)F)Cc1ccccc1 | -13
52 | CC1CCCC(C)N1C(=O)CN(C)c1cccc2cccnc12 (centres undefined) | -7

Row | Compound | % Inhibition [%]
53 | Cc1cc(C(=O)N[C@@H](C)c2nc(-c3cccnc3)cs2)cc(O)n1 | 53
54 | CCc1ccc(-c2n[nH]c3c2cnc2ccc(OC)cc23)cc1 | -1
55 | C[N+]1(CCCC(=O)c2ccc3c(c2)OCCO3)CCC(c2ccccc2)C1 (centres undefined) | 49
56 | CCCn1nc(-n2cnnc2)c(NC(=O)c2ccc3c(c2)OCO3)c1C | -4
57 | CCc1ccc(NC(=O)Cn2c(=O)ncc3cc(S(=O)(=O)N4CCCC[C@@H]4C)ccc32)cc1 | 5
58 | O=S(=O)(Nc1nncs1)c1cccs1 | -10
59 | Cc1ccc2nc(O)c3nnc(C)n3c2c1 | -2
60 | Cn1ccc(C(=O)Nc2ccc(-c3ccccc3)cn2)cc1=O | -17
61 | CC[C@](C)(NC(=O)Nc1cncnc1OC)c1nc(C)cs1 | 2
62 | O=c1ccc(F)cn1Cc1csc(C2CCCC2)n1 | -1
63 | CCCC(=O)N1CCC(OC(=O)c2cnc3ccc(F)cc3c2)CC1 | -2
64 | CN1CCC(n2ncc3[nH]c(-c4ccc(C(F)(F)F)cc4)nc32)CC1 | 96
65 | COC(c1ccc(-c2ccc(OC3CC3)cc2)cc1)C(C)N (centres undefined) | -3
66 | CC1(C)C[C@](C)(c2ccc(N)cc2)c2cc(N)ccc21 | -4
67 | NC(=O)C1C(=O)NC(c2ccccc2)C=C1c1ccccc1 (centres undefined) | -8
68 | CS(=O)(=O)Cc1ccc(Cl)cc1NC1CCCC(C2CC2)C1 (centres undefined) | 1
69 | O=S(=O)(Cc1ccon1)N1CCN(Cc2cccnc2)CC1 | 0
70 | Cc1cc(=O)n(CC(=O)N2CCC(C)CC2)c(-c2ccc(F)cc2)n1 | -4
71 | O=S1(=O)CCC(NCCC2CCCO2)c2cc(F)c(F)cc21 (centres undefined) | -5
72 | O=C(N[C@@H](Cn1nccn1)c1ccccc1)c1cc(Br)ccc1Cl | 65
73 | CCN1C(=O)c2ccc(NC(=O)c3ccncc3)c3cccc1c23 | 0
74 | NC(=O)c1nnn(CC(=O)c2ccc(Cl)cc2)c1C(N)=O | -9
75 | Cc1cc(C(=O)NCc2ccncc2)no1 | -11
76 | CC(C)CC[C@@H](CCNC1CCN(C)CC1)c1ccc(Cl)cc1 | 80
77 | CC(C)NC(=O)N(C)Cc1ccc(F)cc1 | 0
78 | O=C(NCC1CC1)c1cn[nH]c1-c1ccccc1 | -1

Row | Compound | % Inhibition [%]
79 | CC[C@H](C)S(=O)(=O)NC(=O)Cc1c(C)noc1C | 5
80 | CN(C)C(=O)CN1CCc2cccc(NC(=O)OC(C)(C)C)c21 | 1
81 | O=C(C[C@H]1CCN(C(=O)c2ccc(F)cc2)C1)N1CCOCC1 | -10
82 | CC1=CC(C2CC(=O)N(c3ccc(Cl)cc3)C2=O)CC2C(=O)N(c3ccc(Cl)cc3)C(=O)C12 (centres undefined) | -1
83 | Cc1nc(NC(=O)NCCn2ncnn2)sc1C | 2
84 | O=C(NCCc1ccc(O)cc1)c1ccc2n[nH]c(=O)n2c1 | -27
85 | CCc1nnc(NC(=O)C2(C)COC(c3ccccc3)OC2)s1 (centres undefined) | 3
86 | Cc1ccc(N(C)CC(=O)N2CCC2)c(Br)c1 | -5
87 | CCN(C(=O)Cn1c(=O)n(Cc2ccc(F)cc2)c(=O)c2ccccc21)c1cccc(C)c1 | 7
88 | CCOCCCNC/C=C/c1ccccc1 | -5
89 | N#Cc1cccnc1-n1cc(NC(=O)NCCC2(O)CCC2)cn1 | -11
90 | COc1ccc(-c2nn(C3CCCC3)c(-c3ccc(OC)c(OC)c3)c2Cl)cc1OC | -4
91 | Cc1nonc1N(Cc1ccc(Cl)cc1Cl)S(=O)(=O)c1ccccc1 | -22
92 | O=C(Nn1cnc2ccccc2c1=O)c1cnccn1 | 2
93 | Cn1nc(C(=O)Nc2nnc[nH]2)ccc1=O | 4
94 | CCC(C)(C)c1ccc(OCC(=O)Nc2cccc(C(=O)CC(=O)Nc3ccc(Oc4ccccc4)cc3)c2)c(C(C)(C)CC)c1 | -4
95 | Cn1nc(C(=O)NCc2ccc(F)cc2)cc1C(=O)NCc1ccc(F)cc1 | -4
96 | O=C(c1ccccn1)N1CC(n2cnnc2[C@@H]2CCCO2)C1 | -8
97 | CNc1nc(N2C[C@H](C)[C@@](O)(C3CC3)C2)nc2c1CCC2 | -11
98 | O=C(Cn1c(=O)n(Cc2ccco2)c(=O)c2ccccc21)Nc1cccc(Br)c1 | 6
99 | O=C(CCC1CCCCC1)Nc1ncccn1 | -7
100 | CCC(C(=O)Nc1cc(C)on1)(C(F)(F)F)C(F)(F)F | 2
101 | CNC(=O)C(=O)Nc1ccccc1C(F)(F)F | 2
102 | Oc1csc(Cc2nc(C(F)(F)F)cs2)n1 | -10
103 | COCc1cc(C)n(CC#N)c(=O)c1C#N | 11
104 | CC(C)(C)c1ccnc(N[C@H]2CO[C@H]3[C@@H]2OC[C@@H]3NC(=O)NCc2ccccc2)n1 | 18
